# Measurements: the BET-seq Pho4 binding data (Le et al. 2018)
# The list shows a part of the results. These are noisy estimates, calculated here from bound and input reads.
# Target: T1, Pho4 (S. cerevisiae) (UniProt P07270)
# T1 sequence: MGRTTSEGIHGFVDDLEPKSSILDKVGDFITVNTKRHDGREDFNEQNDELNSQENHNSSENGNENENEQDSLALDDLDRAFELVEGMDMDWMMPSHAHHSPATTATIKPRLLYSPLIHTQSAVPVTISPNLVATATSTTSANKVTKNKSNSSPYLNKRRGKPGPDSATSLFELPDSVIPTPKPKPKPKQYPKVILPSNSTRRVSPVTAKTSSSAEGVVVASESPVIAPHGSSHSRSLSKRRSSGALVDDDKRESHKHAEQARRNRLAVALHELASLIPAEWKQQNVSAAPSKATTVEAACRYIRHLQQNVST
# Test: relative binding free energy (BET-seq); higher = weaker binding
# Conditions: reference: library average
row,Sequence,relative binding free energy [kcal/mol]
1,TATGACACGTGAGTGA,0.12
2,TTTAACACGTGAAGGG,0.25
3,AAGGCCACGTGCGGGT,-0.21
4,TATAACACGTGTGTGC,-0.05
5,TGCGTCACGTGGCGAG,-0.06
6,TGTCTCACGTGGTGCG,0
7,AGAATCACGTGTTGAT,0.18
8,GTTTTCACGTGGAAGG,0.26
9,TGTTTCACGTGTTAAC,0.24
10,GCTTGCACGTGTTAAG,0.1
11,TTGGACACGTGTAATA,0.17
12,ATTCTCACGTGATGGG,0.28
13,GTTATCACGTGTCGTC,0.28
14,GGATTCACGTGTTGAA,0.18
15,AAGTGCACGTGTTAAT,0.07
16,TTCTACACGTGTTTAA,0.07
17,TGGGACACGTGCGGTA,-0.05
18,GGGGGCACGTGCAGGA,-0.14
19,TATAGCACGTGGGAGG,-0.2
20,TGTGGCACGTGCTCAG,-0.18
21,TTTCTCACGTGGGATG,0.17

row,Sequence,relative binding free energy [kcal/mol]
1,AGGTGCACGTGATAAT,0.07
2,TAGGGCACGTGACGGA,-0.05
3,AGTGTCACGTGTTTTG,0.11
4,GGGTTCACGTGTCGTA,0.37
5,TGTGACACGTGTTGGG,0.03
6,AGAGGCACGTGTGCGT,-0.09
7,GGGGCCACGTGTTGTT,0.02
8,GTTTACACGTGGTGTC,0.01
9,GATGACACGTGTGCTT,0.19
10,TAGATCACGTGTAGCG,0.15
11,TTTAGCACGTGAGTGA,0.13
12,TTGGACACGTGGTGCG,0.09
13,GTTTACACGTGTTGAA,0.23
14,GGTAGCACGTGGGTGG,-0.12
15,CGGCTCACGTGGTGTT,0.08
16,TGATTCACGTGAGGAT,0.46
17,GGTAGCACGTGGGACG,-0.11
18,AATTACACGTGGTCGT,0.03
19,GTTGCCACGTGGTGTA,-0.22
20,TCTTTCACGTGAGGAG,0.32
21,TGGCGCACGTGGATGG,-0.01

row,Sequence,relative binding free energy [kcal/mol]
1,CTTGACACGTGGTTGT,-0.02
2,GGGTACACGTGTGTTT,0.15
3,GGCCGCACGTGTGTGG,-0.09
4,GTCGGCACGTGGCGTG,-0.08
5,AAGATCACGTGATGTT,0.27
6,ATAAACACGTGTTGTA,-0.13
7,GAGGGCACGTGAGGTG,0.18
8,AAATTCACGTGTCTAT,0.23
9,AGTTACACGTGTAGGG,0.13
10,TTCTACACGTGGGTTT,0
11,GGACGCACGTGGTTTT,-0.11
12,GGCAGCACGTGGAGGG,-0.11
13,CGGGTCACGTGGTTCC,0.27
14,ATATACACGTGGCTTG,0.04
15,GTGCGCACGTGCATTG,0
16,AGTTTCACGTGTGTAC,0.25
17,ATGATCACGTGAGGCG,0.15
18,GGTCACACGTGTAAGT,0.11
19,ATGGTCACGTGCGCGG,-0.19
20,TTGATCACGTGGTTTA,0.06
21,GTATGCACGTGATTTG,0.24
